About 2,200 (0.71%) of roughly 310,000 compounds showed an effect of 50% or more. The effect is printed as a negative number. The list shows a part of the results.

We go through 86 molecules from publication PMC4336329 (PLoS ONE, 2015).

Chain of human ether-à-go-go-related gene (hERG) potassium channel (Q12809 whole entry, looked up): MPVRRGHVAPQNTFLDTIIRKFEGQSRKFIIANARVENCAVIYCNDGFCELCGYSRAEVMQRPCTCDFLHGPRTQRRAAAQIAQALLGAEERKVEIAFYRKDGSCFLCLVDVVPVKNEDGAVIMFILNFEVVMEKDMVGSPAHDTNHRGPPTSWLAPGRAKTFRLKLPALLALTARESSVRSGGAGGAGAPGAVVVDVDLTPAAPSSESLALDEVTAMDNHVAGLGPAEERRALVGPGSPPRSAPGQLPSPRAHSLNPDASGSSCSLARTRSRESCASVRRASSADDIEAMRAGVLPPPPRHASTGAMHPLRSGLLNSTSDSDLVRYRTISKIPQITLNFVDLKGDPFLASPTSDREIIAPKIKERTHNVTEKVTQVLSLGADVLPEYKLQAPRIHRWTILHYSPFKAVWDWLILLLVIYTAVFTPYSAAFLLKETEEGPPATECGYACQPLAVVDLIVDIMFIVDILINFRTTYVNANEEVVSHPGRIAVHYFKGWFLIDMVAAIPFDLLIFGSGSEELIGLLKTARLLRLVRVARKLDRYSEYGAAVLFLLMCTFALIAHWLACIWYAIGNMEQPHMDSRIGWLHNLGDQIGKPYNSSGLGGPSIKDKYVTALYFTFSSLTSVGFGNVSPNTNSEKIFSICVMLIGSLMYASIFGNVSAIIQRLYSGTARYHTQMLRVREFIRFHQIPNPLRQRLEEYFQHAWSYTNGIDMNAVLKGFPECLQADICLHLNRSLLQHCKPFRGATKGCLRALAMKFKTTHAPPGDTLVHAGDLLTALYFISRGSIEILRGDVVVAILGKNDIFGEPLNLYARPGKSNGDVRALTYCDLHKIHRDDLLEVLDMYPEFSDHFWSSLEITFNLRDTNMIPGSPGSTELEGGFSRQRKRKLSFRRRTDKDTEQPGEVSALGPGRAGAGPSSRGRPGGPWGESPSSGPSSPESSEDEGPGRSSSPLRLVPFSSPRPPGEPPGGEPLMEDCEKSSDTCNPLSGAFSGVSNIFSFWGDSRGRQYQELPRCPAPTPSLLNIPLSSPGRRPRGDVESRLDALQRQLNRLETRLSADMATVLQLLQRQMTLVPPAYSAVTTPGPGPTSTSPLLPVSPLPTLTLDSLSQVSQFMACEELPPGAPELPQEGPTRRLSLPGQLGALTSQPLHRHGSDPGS

The assay concerns the target human ether-à-go-go-related gene (hERG) potassium channel (human, UniProt Q12809). As to the kind of experiment: primary screen, population patch clamp on CHO cells stably expressing hERG.
On to `CCOC(=O)c1[nH]c2ccc(Br)cc2c1NC(=O)CNC`, for which the “hERG current change (%, negative = inhibition) at 1uM” value was 5.46%. Under `CNC(=O)[C@@H]1CCC(=O)N1` stands 8.25%.

As for `CCc1cc2c(=O)c(-c3nc4ccccc4n3C)c(C)oc2c(CN2CCN(C)CC2)c1O`, the “hERG current change (%, negative = inhibition) at 1uM” value amounted to 14.2%. Under `Cc1noc2ncnc(Oc3ccc4ccccc4c3)c12` stands 7.17%; under `CCCCCN(C(=O)CCC(=O)OC(C)C(=O)NC1CCCCC1)c1c(N)n(CCCC)c(=O)[nH]c1=O` (centres unmarked), 13.5%; under `COc1ccc(C)cc1NC(=O)c1sc2nc(C)nc(N3CCOCC3)c2c1C`, 2.09%. For the molecule `COc1cc([N+](=O)[O-])c(N2CCOCC2)c([N+](=O)[O-])c1OC`, the “hERG current change (%, negative = inhibition) at 1uM” value was determined as 3.93%. Under `Cl.O=C(CN1CCCCCC1)Nc1cccc2c1OCO2` stands 5.71%. In the case of `Cc1nc(-c2ccc(S(=O)(=O)Nc3ccc(S(N)(=O)=O)cc3)cc2)co1`, the “hERG current change (%, negative = inhibition) at 1uM” value is on record as 20.3%. With `O=C(O)[C@H](CSCc1ccccc1)NS(=O)(=O)c1ccc(F)cc1` the figure was 9.02%. With `COCc1cc(C)n(CC(=O)NCC2CCCO2)c(=O)c1C#N` (centres unmarked) the figure was 13.8%; with `O=C1COc2ccc(-c3csc(NCC4CCCO4)n3)cc2N1` (centres unmarked), 9.02%. Under `COC(=O)c1ccccc1NC(=O)NC1CCC(C)CC1` (centres unmarked) stands 5.25%; under `COc1cccc(N2CCN(C(=O)c3c(C)nn(-c4ccccc4)c3C)CC2)c1`, 2.38%; under `COc1ccc(NC(=O)C(=O)c2cn(CC(=O)N3CCCC3)c3ccccc23)cc1`, 10.4%.

For the molecule `Cc1cccc(CC(=O)Nc2cc(=O)n(C)c(=O)n2C)c1`, the “hERG current change (%, negative = inhibition) at 1uM” value came out at 10.8%. In the case of `CCN(CC(=O)Nc1ccc(NC(C)=O)cc1)C(=O)c1ccc(COc2ccccc2)o1`, the “hERG current change (%, negative = inhibition) at 1uM” value was 15.8%.

Regarding `CC1(c2ccc3ccccc3c2)NC(=O)N(CC(=O)Nc2ncccc2O)C1=O` (centres unmarked), the “hERG current change (%, negative = inhibition) at 1uM” value stood at 14.4%.

Turning to `CN(c1ccccc1C(=O)Nc1cccc(Br)c1)S(=O)(=O)c1ccccc1`, the “hERG current change (%, negative = inhibition) at 1uM” value is listed as 9.32%.

In the case of `O=C(COC(=O)C1CCCCC1)Nc1ccc([N+](=O)[O-])cc1`, the “hERG current change (%, negative = inhibition) at 1uM” value was 2.62%. Consider `Fc1cc(F)cc(NC(=S)NCCCN2CCOCC2)c1`, for which the “hERG current change (%, negative = inhibition) at 1uM” value is reported as -0.0818%.

As to `Cc1ccsc1C(=O)Nc1ccc2c(c1)OCCO2`, the “hERG current change (%, negative = inhibition) at 1uM” value stood at 15.9%. Under `Cc1cccc2cc(C(c3nnnn3CC3CCCO3)N3CCCc4ccccc43)c(=O)[nH]c12` (centres unmarked) stands -1.09%; under `C#CCOCCOCCOCCNc1nc(N2CCN(C(=O)[C@H](CCC(=O)O)n3cc(C(N)CC(C)C)nn3)CC2)nc(N2CCN(C(=O)[C@H](Cc3cc4ccccc4[nH]3)n3cc(C(N)[C@H](C)CC)nn3)CC2)n1.Cl` (some centres unmarked), 12.9%. With `Cl.O=C1CSC2(CN3CCC2CC3)N1` (centres unmarked) the figure was 16.4%. With `O=C(CN1CCC(NC(=O)Nc2ccc(F)cc2)CC1)Nc1ccccc1[N+](=O)[O-]`, the “hERG current change (%, negative = inhibition) at 1uM” value amounted to 3.34%.

Turning to `CCN(C(=O)CSc1nnc(-c2cccs2)o1)C1CCS(=O)(=O)C1` (centres unmarked), the “hERG current change (%, negative = inhibition) at 1uM” value was 8.34%. In the case of `CCN1C(=O)CC(N2CCN(c3cccc(OC)c3)CC2)C1=O` (centres unmarked), the “hERG current change (%, negative = inhibition) at 1uM” value amounted to 10.4%. Take `CN1C(=O)[C@H]2[C@@H](/C=C/c3ccccc3)N3C(=O)CN(CCO)C(=O)[C@@]3(C)[C@H]2C1=O`: the “hERG current change (%, negative = inhibition) at 1uM” value worked out at 7.69%. Under `C/C(=N/NC(=O)c1ccncc1)c1ccc(NC(=O)c2ccccc2)cc1` stands 15.6%. As to `CCCCCC(=O)NNC(=O)Cc1ccc([N+](=O)[O-])cc1`, the “hERG current change (%, negative = inhibition) at 1uM” value is given as 9.19%. Under `C=CCNC1=C(Cl)C(=O)N(c2cccc(Cl)c2Cl)C1=O` stands 5.38%.

As to `CCC(C(=O)NC1CCCC1)N(Cc1ccco1)C(=O)CNS(=O)(=O)c1ccccc1` (centres unmarked), the “hERG current change (%, negative = inhibition) at 1uM” value amounted to 19.4%.

Turning to `CC(C)(C)c1ccc(NC(=O)COC(=O)CCN2C(=O)c3cccc([N+](=O)[O-])c3C2=O)cc1`, the “hERG current change (%, negative = inhibition) at 1uM” value is given as 9.83%. With `CCCN(Cc1ccc(N(C)C)cc1)CC1CC1` the figure was 6.19%; with `CN1CCN(C(=O)C2CCCN(S(=O)(=O)c3ccc(Br)cc3)C2)CC1` (centres unmarked), 1.58%. For `Cc1nc2ccccc2c2oc(C(=O)N3CCN(C(=O)c4ccco4)CC3)cc12`, the “hERG current change (%, negative = inhibition) at 1uM” value was -23.2%.

As for `CCc1ccc(C(=O)CN(C#N)c2nc(C)cc(C)n2)cc1`, the “hERG current change (%, negative = inhibition) at 1uM” value is -25.5%. For the molecule `CCCCc1nnc(NC(=O)CSCc2cc(=O)n3c(C)csc3n2)s1`, the “hERG current change (%, negative = inhibition) at 1uM” value is 12.2%. As for `CCC1(C)Cc2ccccc2-c2nc(NCCCO)[nH]c(=O)c21` (centres unmarked), the “hERG current change (%, negative = inhibition) at 1uM” value was 1.5%. With `COc1cccc(C(=O)Nc2cccc(SC)c2)c1` the figure was 9.78%. Under `CCC(=O)Nc1cccc(C(=O)/C=C/c2cc(Br)ccc2OC)c1` stands -7.46%; under `COc1ccc2[nH]cc(C=O)c2c1`, 17.9%; under `CCO[C@@H]1OC(C(=O)N2CCCCCCC2)=C[C@H](c2csc3ccccc23)[C@H]1CCCO`, 7.83%. Under `O=C(COC(=O)C1CCN(S(=O)(=O)c2ccc3c(c2)OCCO3)CC1)Nc1ccc(C(F)(F)F)cc1` stands 4.37%. In the case of `CN(C)C(=O)Oc1cccc(NC(=O)N2CCOCC2)c1`, the “hERG current change (%, negative = inhibition) at 1uM” value is 10.7%. Under `S=C(Nc1ccc2nsnc2c1)NC1CCCCC1` stands 15.1%; under `COC(=O)CCCC1=CC2=C(c3ccccc3)C(=O)C(C)(OC(=O)C3CCCC3)C(=O)C2=CN1C1CCCC1` (centres unmarked), 0.826%; under `CCN(CC)c1ccc(CN2CCC(C(=O)NCc3ccc(C)cc3)CC2)cc1.O=C(O)C(=O)O`, -13.2%. In the case of `CCCCCOc1ccc(Cl)cc1CN1CCOCC1.Cl`, the “hERG current change (%, negative = inhibition) at 1uM” value is listed as 0.645%. Under `CNC(=S)N(C)[C@H]1c2c(ccc3ccccc23)OC[C@H]1CO` stands 19.2%.

Regarding `COc1cccc(C(=O)NC(C)c2ccc(Br)cc2)c1` (centres unmarked), the “hERG current change (%, negative = inhibition) at 1uM” value worked out at 9.01%.

Turning to `Cc1cc(Nc2ccc(F)cc2C)n2ncnc2n1`, the “hERG current change (%, negative = inhibition) at 1uM” value was found to be 0.461%.

Regarding `COc1ccc(S(=O)(=O)N2CCN(c3ccc4nnc(-c5ccc(F)cc5)n4n3)CC2)cc1`, the “hERG current change (%, negative = inhibition) at 1uM” value is 7.12%. Under `Cc1ccccc1CSc1ncnc2ccccc12` stands -1.03%; under `Cc1nc(CC(=O)N/N=C/c2ccc(OCC(=O)O)cc2)cs1`, 7.44%; under `CCc1nn(CC(=O)NC(C)CCc2ccccc2)c(=O)c2cc3cc(F)ccc3n12` (centres unmarked), 15.1%.

With `COc1cccc(OCC(O)CN2CCN(c3ccc(Cl)cc3)CC2)c1` (centres unmarked), the “hERG current change (%, negative = inhibition) at 1uM” value is recorded as -14.1%. In the case of `COc1ccc(N2C(=O)CCC(C(=O)O)C2c2ccc(OC)c(OC)c2)cc1` (centres unmarked), the “hERG current change (%, negative = inhibition) at 1uM” value is on record as 4.97%.

`CC(=O)c1cc(CN2CCN(CCc3ccccc3)C(CCO)C2)cs1` (centres unmarked): the “hERG current change (%, negative = inhibition) at 1uM” value is reported as -10.2%. Under `COc1ccc(CCNC(=O)CSc2nc(=O)n3cccc(C)c3n2)cc1OC` stands 10.3%; under `COc1ccc(/C=N/Nc2nonc2N)cc1`, -3.01%; under `Cc1ccc(/C=C2/NC(=O)N(Cc3ccccc3)C2=O)o1`, 2.52%. As to `O=C(O)c1ccccc1NSc1ccccc1[N+](=O)[O-]`, the “hERG current change (%, negative = inhibition) at 1uM” value is given as 13%.

As for `C=CCn1c(SCC(=O)NC2CCS(=O)(=O)C2)nc2scc(C3CC3)c2c1=O` (centres unmarked), the “hERG current change (%, negative = inhibition) at 1uM” value is listed as -3.99%. On to `Cc1ccc(CNC(=O)CCC(=O)N2CC(C)Sc3ccccc32)cc1` (centres unmarked), for which the “hERG current change (%, negative = inhibition) at 1uM” value was found to be 6.63%.

For the molecule `CCC(C)Sc1cccc(-c2nc3ccc(C)cn3c2NCc2ccccc2)c1.O=C(O)C(F)(F)F` (centres unmarked), the “hERG current change (%, negative = inhibition) at 1uM” value came out at 11.9%.

Regarding `Cc1ccc(C(=O)N2CC(=O)Nc3ccccc32)o1`, the “hERG current change (%, negative = inhibition) at 1uM” value came to 13.8%. Under `CCOC(=O)c1ccc(NC(=O)COC(=O)c2cccc(Oc3ccccc3)c2)cc1` stands 4.22%; under `O=C(O)C12C[C@H]3C[C@@H](C1)CC(n1ncc(N4CCN(c5ccccc5)CC4)c(Cl)c1=O)(C3)C2`, 8.57%. Under `COc1ccc2[nH]c(C(=O)N3CCC(CO)(Cc4cccc(C(F)(F)F)c4)CC3)c(C)c2c1` stands 13.3%. Take `Cc1cc(NC(=O)c2ccc(C)s2)n(-c2ccccc2)n1`: the “hERG current change (%, negative = inhibition) at 1uM” value is recorded as 6.76%. Under `O=C(NC(Cc1c[nH]c2ccccc12)C(=O)O)c1ccc(F)cc1` (centres unmarked) stands 11.3%. Under `Cc1ccc(Cl)cc1NC(=O)Cn1cc(C(F)(F)F)cc(Cl)c1=O` stands -3.49%.

`CCOc1ccccc1Cn1c(=O)oc2ccc(C)cc21`: the “hERG current change (%, negative = inhibition) at 1uM” value is 11.7%. With `CC1CCCC(NC(=O)CCS(=O)(=O)c2ccc3c(c2)NC(=O)CS3)C1C` (centres unmarked) the figure was -6.33%; with `O=C(NCCOc1ccccc1F)C1CC(=O)N(c2ccc3c(c2)OCCO3)C1` (centres unmarked), 6.39%. Take `Cc1nc(N[C@@H](Cc2c[nH]c3ccccc23)C(=O)O)c2oc3ccccc3c2n1`: the “hERG current change (%, negative = inhibition) at 1uM” value is 11.4%. Take `COc1cccc(CNC(=O)c2nnn(CC(=O)Nc3cc(C)ccc3C)c2N)c1`: the “hERG current change (%, negative = inhibition) at 1uM” value was found to be 16.2%. For the molecule `COC(=O)[C@@H]1CCCN1Cc1nc(Cc2ccccc2F)no1`, the “hERG current change (%, negative = inhibition) at 1uM” value is recorded as 9.32%.

For the molecule `Cc1ccc(N(C)S(=O)(=O)c2cccc(C(=O)Nc3ccc(C)cn3)c2)cc1`, the “hERG current change (%, negative = inhibition) at 1uM” value is given as 15.7%. Under `CC(OC(=O)CCN1C(=O)C2CC=CCC2C1=O)C(=O)c1ccc(F)cc1` (centres unmarked) stands 5.02%; under `COc1ccc(CCNC(=S)NC(=O)/C=C/c2ccc(C)cc2)cc1OC`, 8.14%.

Take `CCOC(=O)N1CCN(c2cc(=O)n(-c3ccc(C)cc3)c(=O)[nH]2)CC1`: the “hERG current change (%, negative = inhibition) at 1uM” value is reported as -8.88%.

Regarding `Cc1ccc(C(=O)Nc2scc(-c3ccccc3)c2C(=O)O)cc1`, the “hERG current change (%, negative = inhibition) at 1uM” value is 5.69%. `O=C(Nc1cc(=O)c2ccccc2o1)N1CCOCC1`: the “hERG current change (%, negative = inhibition) at 1uM” value amounted to 2.21%.
